Measurements as given in PubChem BioAssay AID2147 (National Center for Advancing Translational Sciences (NCATS), 2009).
Hit rate of the full screen: of about 230,000 compounds, about 3,600 (1.6%) were called active. This list was built around the results that the source calls inconclusive (neither active nor inactive); the mix of calls is not that of the screen. The call rests on the fitted dose curve; in most records, active means well fitted inhibition curve with a large enough effect (not every such curve was filed as active); inconclusive means small, poorly fitted or top-dose-only effect, or another doubt; inactive means no such curve, though single readings can be large or run the other way. A potency beside an inconclusive call is a rough fit, not a confirmed value.

target: Lysine-specific demethylase 4E (Homo sapiens) (UniProt B2RXH2); assay: qHTS Assay for Inhibitors of Human Jumonji Domain Containing 2E (JMJD2E); settings: JMJD2E catalytic domain, FDH-coupled NADH fluorescence (FDH is formaldehyde dehydrogenase); series mostly up to 57.1 µM
Further: nearly all actives have a fitted effect of over 50% in size.
Potency means the concentration at half of the fitted maximal effect; tags describe the fitted curve by direction and shape.

Sequence of UniProt B2RXH2 (B2RXH2 whole entry, looked up, the tested form may be a part): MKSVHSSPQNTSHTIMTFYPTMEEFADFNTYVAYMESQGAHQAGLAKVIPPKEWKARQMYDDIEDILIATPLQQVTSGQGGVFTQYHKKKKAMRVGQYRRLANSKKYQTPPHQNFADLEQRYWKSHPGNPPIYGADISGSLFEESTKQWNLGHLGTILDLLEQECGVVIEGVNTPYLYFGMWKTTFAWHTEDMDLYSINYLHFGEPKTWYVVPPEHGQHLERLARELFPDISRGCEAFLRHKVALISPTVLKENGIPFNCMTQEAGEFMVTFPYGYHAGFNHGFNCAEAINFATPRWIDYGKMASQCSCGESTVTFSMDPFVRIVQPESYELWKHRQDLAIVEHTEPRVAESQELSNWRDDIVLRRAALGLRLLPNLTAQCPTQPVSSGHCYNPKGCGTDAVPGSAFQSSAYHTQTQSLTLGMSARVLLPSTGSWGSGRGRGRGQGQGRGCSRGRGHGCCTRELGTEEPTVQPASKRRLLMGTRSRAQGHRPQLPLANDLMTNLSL

SMILES	Potency
O=C(O)c1c(C(=O)O)c2ccccc2[nH]c1=O	inconclusive: 39.8 µM [inhibitor, single point]
Cc1[nH]n(-c2ccccc2)c(=O)c1C(=O)c1ccc(Cl)cc1	inactive
Cc1cc(C)nc(SCc2ccc(C(=O)N/N=C3\CCCC(=O)C3)cc2)n1	inconclusive: 20 µM [inhibitor, partial curve]
CCOc1ccc(C(=O)N/N=C/c2c(C)[nH]c(=O)[nH]c2=O)cc1	inconclusive: 31.6 µM [inhibitor, single point]
O=C(CSc1nc(-c2ccco2)cc(C(F)(F)F)n1)N1CCc2ccccc2C1	inconclusive: 39.8 µM [inhibitor, single point]
Cc1nc(C)c(-c2csc(Nc3ccc(F)cc3)n2)s1	inconclusive: 35.5 µM [inhibitor, single point]
C[C@@]1(C(=O)O)NCCc2cc(O)c(O)cc21	inconclusive: 25.1 µM [inhibitor, partial curve]
CCOc1ccc(Nc2ccc(N3C(=O)CCC3=O)cc2[N+](=O)[O-])cc1	inactive
COCCN(CCOC)c1nc(C)nc2c1nc(-c1ccccc1)n2CCN1CCCC1	inconclusive: 25.1 µM [inhibitor, partial curve]
Cc1ccc(-c2csc3nc4cc(C(=O)NC5CCC(O)CC5)ccc4c(=O)n23)cc1 (configuration not stated)	inconclusive: 25.1 µM [inhibitor, partial curve]
CN(C(=O)CSc1nnc2ccccn12)C1CCS(=O)(=O)C1 (configuration not stated)	inconclusive: 25.1 µM [inhibitor, partial curve]
Cc1ccc2nc(-c3cccnc3)cc(C(=O)N3CCN(c4ccc([N+](=O)[O-])cc4)CC3)c2c1	inactive
Cc1cccn2cc(-c3ccc(F)cc3)nc12	inconclusive: 28.2 µM [inhibitor, partial curve]
Cc1cccc(/C=N/Nc2ccc3ccccc3n2)c1	inconclusive: 31.6 µM [inhibitor, partial curve]
COC(=O)c1ccc(-c2ccc(CNCC(O)c3ccccc3)o2)cc1 (configuration not stated)	inconclusive: 3.16 µM [inhibitor, full curve]
Cc1cccc(C)c1NC(=O)C(NC(=O)CN1C(=O)c2ccccc2C1=O)c1ccccc1 (configuration not stated)	inactive
CCN(CC)C(=O)C1=C(C)NC(=S)NC1c1ccc(C)s1 (configuration not stated)	inactive
CC(/C=C/c1ccccc1)=N/NC(=O)c1cccc(Br)c1	inactive
Cc1ccccc1C(=O)N1CCC(C(=O)Nc2ccc3c(c2)OCCO3)CC1	inactive
COc1cc(O)c(C(=O)/C=C/c2ccc(OC)c(O)c2)c(OC)c1	inconclusive: 28.2 µM [inhibitor, partial curve]
C=CCc1ccccc1OCCCCN1CCCC1	inconclusive: 28.2 µM [inhibitor, single point]
Cc1cccc(C(=O)N=c2c(C#N)cc3c(=O)n4cccc(C)c4nc3n2Cc2ccco2)c1	inconclusive: 31.6 µM [inhibitor, partial curve]
O=C(Nc1ccc2nc(-c3ccc4nc[nH]c4c3)[nH]c2c1)c1cccs1	inconclusive: 39.8 µM [inhibitor, single point]
Clc1ccc(CSCCc2ccncc2)cc1	inactive

SMILES	Potency
COCCn1c(SCC(=O)Nc2ncc(C)s2)nc2sc3c(c2c1=O)CCC3	inactive
COc1cccc(/C=C/C(=O)OCC(=O)NCc2ccco2)c1	inconclusive: 31.6 µM [inhibitor, partial curve]
CN(C)c1ccc(/C=C/c2ccc3ccccc3[n+]2C)cc1	inactive
N#Cc1c(SCc2cccc(Cl)c2)sc(C(=O)c2ccccc2)c1N	inconclusive: 39.8 µM [inhibitor, single point]
CC(C)[C@H](NS(=O)(=O)c1ccccc1)C(=O)OCC(=O)N1N=C(c2ccc(Cl)cc2)CC1c1ccco1 (some centres not stated)	inconclusive: 15.8 µM [inhibitor, partial curve]
CCCCN1C(=O)C(O)=C(C(C)=O)C1c1ccccc1 (configuration not stated)	inactive
CCOc1ccc2c(c1)-c1c(ssc1=S)C(C)(C)N2C(=O)CSC1=NCCS1	inactive
COc1ccc2[nH]c(C(=O)NCc3ccccc3)cc2c1	inconclusive: 22.4 µM [inhibitor, partial curve]
CCN(C(=S)Nc1cccnc1)c1cccc2ccccc12	inconclusive: 28.2 µM [inhibitor, partial curve]
CC(C)n1cnc2cc(NCc3ccccc3O)ccc21	inconclusive: 28.2 µM [inhibitor, single point]
CC(C)c1ccc(N2C(=O)CC(NNC(=O)c3ccccc3Cl)C2=O)cc1 (configuration not stated)	inactive
COc1ccc(NCC(O)COc2ccc(C(C)(C)C)cc2)cc1 (configuration not stated)	inactive
COc1ccc(/C=N/NC(=O)c2cc(-c3cccn3C)n[nH]2)cc1OC	inactive
COc1ccccc1NCCC(=O)OCC(=O)NCc1ccco1	inconclusive: 25.1 µM [inhibitor, partial curve]
COc1ccc[nH]c1=O	inactive
COc1ccc(/C=C/C(=O)c2ccc(NC(=O)c3cccs3)cc2)cc1OC	inconclusive: 31.6 µM [inhibitor, single point]
O=C(c1ccccc1F)N1CCN(c2ncccn2)CC1	inconclusive: 25.1 µM [inhibitor, single point]
COc1cccc(OC)c1OCCCCN1CCC(Cc2ccccc2)CC1	inconclusive: 31.6 µM [inhibitor, single point]
COc1cccc(-n2nc(C#N)c(Cl)cc2=O)c1	inactive
CCC(C)C(=O)Nc1cc(C(=O)OC)ccc1C(=O)OC (configuration not stated)	inconclusive: 28.2 µM [inhibitor, partial curve]
Cc1cc(/C=C(\C#N)C(=O)Nc2ccccc2)c(C)n1-c1ccc2c(c1)OCO2	active: 25.1 µM
O=C(c1cccc(OC(F)F)c1)N1CCN(c2ncccn2)CC1	inconclusive: 39.8 µM [inhibitor, single point]
O=C(O)C1=C[C@H](c2cccs2)C[C@H](OCCCCO)O1	inconclusive: 22.4 µM [inhibitor, single point]
CCOC(=O)c1cc2c(=O)n3cccc(C)c3nc2n(CCCOC)c1=NC(=O)c1cccnc1	inconclusive: 15.8 µM [inhibitor, partial curve]

SMILES	Potency
O=C(NC1=NN(c2ccccc2)CC1)Nc1ccccc1F	inconclusive: 28.2 µM [inhibitor, single point]
COC(=O)C1C(O)CC[C@H]2CN3CCc4c([nH]c5ccccc45)C3C[C@H]12 (some centres not stated)	inconclusive: 22.4 µM [inhibitor, partial curve]
Cc1nn(CC(=O)Nc2ccc3c(c2)nc(CN2CCCC2)n3C)c(=O)c2ccccc12	inconclusive: 39.8 µM [inhibitor, single point]
COc1cc(/C=C(/C(=O)c2cccs2)c2nc3ccccc3[nH]2)cc(OC)c1O	inconclusive: 10 µM [inhibitor, partial curve]
CCN(CC)c1ccc(/C=N/NC(=O)c2cccc(S(=O)(=O)Nc3ccccc3OC)c2)c(O)c1	inconclusive: 28.2 µM [inhibitor, single point]
CC(O)CN(CCC(N)=O)CCC(N)=O (configuration not stated)	inactive
Nc1cc(S(=O)(=O)Nc2ccccc2Cl)ccc1N1CCCC1	inactive
Cc1ccc(C2Oc3ccccc3C3=C2C(c2cccs2)n2ncnc2N3)cc1 (configuration not stated)	inconclusive: 20 µM [inhibitor, partial curve]
CCOC(=O)COc1cccc2c(=O)n(CC(=O)N3CCC(C)CC3)ccc12	inconclusive: 28.2 µM [inhibitor, single point]
Cc1ccccc1N1C(=O)c2ccccc2N2C(=O)c3ccccc3C12 (configuration not stated)	inconclusive: 39.8 µM [inhibitor, single point]
CN1c2ccccc2-c2nc3ccccc3n2C1c1cccs1 (configuration not stated)	inconclusive: 31.6 µM [inhibitor, partial curve]
O=C(Nc1ccc(Br)c2ccccc12)c1ccc2ccccc2c1O	inconclusive: 25.1 µM [inhibitor, partial curve]
O=C(O)CCCCCNS(=O)(=O)c1cccc2c1C(=O)c1ccccc1C2=O	inactive
CNC(=O)COC(=O)c1cc(=O)[nH]c2ccccc12	inconclusive: 25.1 µM [inhibitor, partial curve]
CN(C)/C=N/C1=C(C#N)C(c2cccs2)c2ccc3ccccc3c2O1 (configuration not stated)	inconclusive: 25.1 µM [inhibitor, single point]
C=C(C)CSC1=C(C#N)C(c2ccsc2)CC(=O)N1 (configuration not stated)	inconclusive: 35.5 µM [inhibitor, single point]
CCOC(=O)c1ccc(N(CC(=O)NC2CCCC2)C(=O)CNC(=O)c2ccco2)cc1	inactive
CCOC(=O)CCC(=O)Nc1ccc([N+](=O)[O-])cc1C	inactive
Cc1ccc(/C=N\Nc2cn[nH]c(=O)c2Cl)cc1	inconclusive: 35.5 µM [inhibitor, single point]
Cc1ccc(-c2nc3cc(NS(=O)(=O)c4ccc(C)cc4)ccc3o2)cc1	inconclusive: 35.5 µM [inhibitor, partial curve]
COc1ccccc1NS(=O)(=O)c1ccc(O)c(C(=O)OCC(=O)Nc2ccccc2F)c1	inconclusive: 28.2 µM [inhibitor, partial curve]
Clc1ccccc1CSc1nnc(-c2ccco2)c(-c2ccco2)n1	inconclusive: 20 µM [inhibitor, single point]
O=C(NCc1ccc2c(c1)OCO2)C1COc2ccccc2O1 (configuration not stated)	inactive
Cc1ccccc1NS(=O)(=O)c1cc(C(=O)Nc2ccccc2-c2ccccc2)ccc1Cl	inconclusive: 39.8 µM [inhibitor, single point]
